This is one part of the list. No stated cut-off is given here; in the data, only hits are listed; in these data all have Qbind below 0.67. Repeats are few or missing, and single values can be far off.
Experiments:
Assay in all cases: Qbind: 19F CPMG 200 ms/0 ms integral ratio with target relative to without target; higher = weaker binding (less relaxation enhancement by target)
[1] = test system: Adenine-sensing riboswitch
[2] = test system: TPP-sensing riboswitch thiM (80)
[3] = test system: Tel26 G-quadruplex (26 nt)
ZMP-sensing riboswitch = test system: ZMP-sensing riboswitch
[4] = test system: cKit G-quadruplex (24 nt)
[5] = test system: cMyc G-quadruplex (22 nt)
[6] = test system: wtTel26 G-quadruplex (26 nt)
[7] = test system: Guanidine-II-sensing riboswitch
Terminator stem (39 nt) = test system: Terminator stem (39 nt)
GAAG hairpin (14 nt) = test system: GAAG hairpin (14 nt)
HDV ribozyme (70 nt) = test system: HDV ribozyme (70 nt)
PtkA (30 kDA) = test system: PtkA (30 kDA)
T7 RNAP (100kDA) = test system: T7 RNAP (100kDA)
[8] = test system: TPP-sensing riboswitch tenA
[9] = test system: Translation initiation region (60 nt)
[10] = test system: c-di-GMP-sensing riboswitch (98 nt)
cGAMP-sensing riboswitch = test system: cGAMP-sensing riboswitch
tRNA (77nt) = test system: tRNA (77nt)
CUUG hairpin (14 nt) = conditions: 19F shift (ppm): -134.119
DNA duplex (24 nt) = conditions: 19F shift (ppm): -114.9211
[11] = test system: Hammerhead ribozyme (54 nt); conditions: 19F shift (ppm): -114.957
EphA2 (34 kDA) = test system: EphA2 (34 kDA)
[12] = test system: Ribosomal protein S1 (61 kDa)
MptpA (18 kDa) = conditions: 19F shift (ppm): -123.0535

Measured: Qbind: 19F CPMG 200 ms/0 ms integral ratio

CC1COCCN1Cc1ccccc1F (stereo not given)
active: [1]; 19F shift (ppm): -112.926 = 0.597 | [2]; 19F shift (ppm): -112.865 = 0.529 | [2]; 19F shift (ppm): -115.3702 = 0.555 | [3]; 19F shift (ppm): -112.8651 = 0.0904 | ZMP-sensing riboswitch; 19F shift (ppm): -112.865 = 0.609 | [4]; 19F shift (ppm): -112.8651 = -0.241 | [5]; 19F shift (ppm): -112.8651 = -0.0534 | [6]; 19F shift (ppm): -112.8651 = 0.141

Fc1cccnc1NCC1CCOCC1
active: [7]; 19F shift (ppm): -139.243 = 0.589 | Terminator stem (39 nt); 19F shift (ppm): -139.178 = 0.207

O=C(Nc1ccc(F)cc1)Nc1ccc(F)cc1
active: [1]; 19F shift (ppm): -64.6505 = 0.0443 | GAAG hairpin (14 nt); 19F shift (ppm): -64.6007 = 0.592 | [7]; 19F shift (ppm): -64.571 = 0.614 | HDV ribozyme (70 nt); 19F shift (ppm): -64.6505 = 0.479 | PtkA (30 kDA); 19F shift (ppm): -64.2219 = 0.0869 | T7 RNAP (100kDA); 19F shift (ppm): -64.3672 = -0.108 | [8]; 19F shift (ppm): -64.571 = 0.127 | [2]; 19F shift (ppm): -64.571 = 0.635 | [9]; 19F shift (ppm): -64.6505 = 0.0953 | ZMP-sensing riboswitch; 19F shift (ppm): -64.571 = 0.36 | [10]; 19F shift (ppm): -64.571 = 0.364 | cGAMP-sensing riboswitch; 19F shift (ppm): -64.571 = 0.49 | [4]; 19F shift (ppm): -64.4382 = 0.465 | [5]; 19F shift (ppm): -64.4382 = 0.338 | tRNA (77nt); 19F shift (ppm): -64.6505 = 0.587

N#Cc1ccc(CNCc2ccc(F)cc2)cc1
active: [1]; 19F shift (ppm): -112.179 = 0.486 | [8]; 19F shift (ppm): -112.1461 = 0.524

CC1(C)CN(c2ncccc2F)CC1O (stereo not given)
active: CUUG hairpin (14 nt) 0.651 | T7 RNAP (100kDA); 19F shift (ppm): -134.368 = 0.177 | cGAMP-sensing riboswitch; 19F shift (ppm): -134.0324 = 0.366

NC(=S)Nc1ccc(OC(F)(F)F)cc1
active: PtkA (30 kDA); 19F shift (ppm): -57.7518 = 0.183

FC(F)(F)c1ccc(CN2CCOCC2)cc1
active: PtkA (30 kDA); 19F shift (ppm): -62.0447 = -0.00711

C[C@@H]1CC[C@H](C(=O)N2CCC=C(F)C2)O1
active: DNA duplex (24 nt) 0.524 | [11] 0.488 | [8]; 19F shift (ppm): -114.896 = 0.57 | [3]; 19F shift (ppm): -114.9211 = 0.566

Cc1ccc(C(N)=O)c(F)c1
active: [1]; 19F shift (ppm): -114.672 = 0.422 | T7 RNAP (100kDA); 19F shift (ppm): -114.8413 = 0.199 | [8]; 19F shift (ppm): -114.645 = 0.206 | ZMP-sensing riboswitch; 19F shift (ppm): -114.624 = 0.0729

O=C(COc1ccccc1)Nc1cccc(F)c1
active: [1]; 19F shift (ppm): -112.222 = 0.611 | [8]; 19F shift (ppm): -112.1773 = 0.652 | [3]; 19F shift (ppm): -112.1721 = 0.464 | ZMP-sensing riboswitch; 19F shift (ppm): -112.194 = 0.524 | [4]; 19F shift (ppm): -112.1721 = 0.107 | [5]; 19F shift (ppm): -112.1721 = 0.163 | [6]; 19F shift (ppm): -112.1721 = 0.504

Cc1nnc(CN2CCC=C(F)C2)s1
active: [7]; 19F shift (ppm): -112.396 = 0.657 | T7 RNAP (100kDA); 19F shift (ppm): -113.7985 = 0.275 | [2]; 19F shift (ppm): -112.396 = 0.592

CC(C)(C)CC(=O)Nc1ccc(F)cc1F
active: PtkA (30 kDA); 19F shift (ppm): -116.6943 = -0.109

Cc1ncc(CNc2cncc(F)c2)s1
active: EphA2 (34 kDA); 19F shift (ppm): -126.5887 = 0.225 | GAAG hairpin (14 nt); 19F shift (ppm): -126.6046 = 0.534 | [8]; 19F shift (ppm): -126.5887 = -0.237 | [2]; 19F shift (ppm): -126.5887 = 0.0726

Cn1nnc(NC(=O)c2ccc(F)cc2)n1
active: [1]; 19F shift (ppm): -106.1934 = 0.346 | [8]; 19F shift (ppm): -106.1469 = 0.194 | [2]; 19F shift (ppm): -106.1469 = 0.599 | [3]; 19F shift (ppm): -106.2728 = 0.5 | ZMP-sensing riboswitch; 19F shift (ppm): -106.1469 = 0.25 | [10]; 19F shift (ppm): -106.1469 = 0.572 | cGAMP-sensing riboswitch; 19F shift (ppm): -106.1469 = 0.604 | [4]; 19F shift (ppm): -106.2728 = 0.47 | [5]; 19F shift (ppm): -106.2728 = 0.226

Fc1ccc(NC2CCOCC2)nc1
active: [7]; 19F shift (ppm): -142.569 = 0.505 | [3]; 19F shift (ppm): -142.6611 = 0.494 | ZMP-sensing riboswitch; 19F shift (ppm): -142.591 = 0.574

CNCc1ccc(C(F)(F)F)cc1
active: PtkA (30 kDA); 19F shift (ppm): -62.3827 = 0.302

O=C(Nc1nncs1)c1ccccc1F
active: [1]; 19F shift (ppm): -113.9483 = 0.1 | HDV ribozyme (70 nt); 19F shift (ppm): -113.9483 = 0.65 | [8]; 19F shift (ppm): -113.8229 = 0.032 | [2]; 19F shift (ppm): -113.8229 = 0.0101 | [3]; 19F shift (ppm): -114.1176 = 0.224 | ZMP-sensing riboswitch; 19F shift (ppm): -113.8549 = 0.0311 | [10]; 19F shift (ppm): -113.8549 = 0.2 | cGAMP-sensing riboswitch; 19F shift (ppm): -113.8549 = 0.194 | [4]; 19F shift (ppm): -114.1176 = -0.0288 | [5]; 19F shift (ppm): -114.1176 = 0.217 | tRNA (77nt); 19F shift (ppm): -113.9483 = 0.523 | [6]; 19F shift (ppm): -114.1176 = 0.371

Fc1cccc(CNCc2ccco2)c1
active: [7]; 19F shift (ppm): -112.417 = 0.643 | [8]; 19F shift (ppm): -112.417 = 0.654 | [2]; 19F shift (ppm): -112.417 = 0.664 | Terminator stem (39 nt); 19F shift (ppm): -112.4742 = 0.612

NC(=S)Nc1ccccc1OC(F)(F)F
active: GAAG hairpin (14 nt); 19F shift (ppm): -57.9957 = 0.648

Nc1cc(C(F)(F)F)ccc1N1CCCCC1
active: PtkA (30 kDA); 19F shift (ppm): -61.6633 = -0.0269 | [12]; 19F shift (ppm): -61.7189 = -0.0593 | T7 RNAP (100kDA); 19F shift (ppm): -61.7189 = 0.00224 | tRNA (77nt); 19F shift (ppm): -61.7801 = 0.547

O=C(Nc1cccc(F)c1)c1cnccn1
active: [1]; 19F shift (ppm): -112.0628 = 0.012 | PtkA (30 kDA); 19F shift (ppm): -111.981 = 0.197 | T7 RNAP (100kDA); 19F shift (ppm): -112.049 = 0.13 | [8]; 19F shift (ppm): -112.0565 = -0.157 | [2]; 19F shift (ppm): -112.0565 = 0.422 | [3]; 19F shift (ppm): -112.0029 = -0.0348 | [9]; 19F shift (ppm): -112.0628 = 0.217 | ZMP-sensing riboswitch; 19F shift (ppm): -112.014 = 0.0179 | [10]; 19F shift (ppm): -112.014 = 0.409 | [4]; 19F shift (ppm): -112.0029 = -0.13 | [5]; 19F shift (ppm): -112.0029 = -0.151 | [6]; 19F shift (ppm): -112.0029 = 0.382

COc1ccc(C(=O)Nc2ccccc2F)cc1
active: [1]; 19F shift (ppm): -123.1254 = -0.0536 | EphA2 (34 kDA); 19F shift (ppm): -123.1156 = -0.19 | [7]; 19F shift (ppm): -123.1156 = 0.297 | HDV ribozyme (70 nt); 19F shift (ppm): -123.1254 = 0.364 | MptpA (18 kDa) 0.252 | PtkA (30 kDA); 19F shift (ppm): -122.9419 = 0.177 | [12]; 19F shift (ppm): -123.0852 = 0.175 | T7 RNAP (100kDA); 19F shift (ppm): -121.8878 = 0.324 | [8]; 19F shift (ppm): -123.1156 = -0.149 | [2]; 19F shift (ppm): -123.1156 = -0.0253 | [3]; 19F shift (ppm): -123.159 = -0.0293 | [9]; 19F shift (ppm): -123.1254 = 0.0509 | ZMP-sensing riboswitch; 19F shift (ppm): -123.0852 = 0.0867 | [10]; 19F shift (ppm): -123.0852 = 0.112 | cGAMP-sensing riboswitch; 19F shift (ppm): -123.0852 = -0.0178 | [4]; 19F shift (ppm): -123.159 = -0.105 | [5]; 19F shift (ppm): -123.159 = -0.254 | tRNA (77nt); 19F shift (ppm): -123.1254 = 0.629 | [6]; 19F shift (ppm): -123.159 = 0.0169

COc1ccc(NCc2ccc(F)cc2)cc1
active: [1]; 19F shift (ppm): -116.07 = 0.643 | PtkA (30 kDA); 19F shift (ppm): -116.1917 = -0.019 | [12]; 19F shift (ppm): -116.2222 = 0.328 | T7 RNAP (100kDA); 19F shift (ppm): -116.2222 = 0.048 | [8]; 19F shift (ppm): -116.018 = 0.325 | [3]; 19F shift (ppm): -116.1947 = 0.628 | [4]; 19F shift (ppm): -116.1947 = 0.614 | [5]; 19F shift (ppm): -116.1947 = 0.323 | [6]; 19F shift (ppm): -116.1947 = 0.638

O=C(CN1CCCC1)Nc1ccc(F)cc1
active: [1]; 19F shift (ppm): -116.4464 = 0.456 | T7 RNAP (100kDA); 19F shift (ppm): -116.4599 = 0.285 | [8]; 19F shift (ppm): -116.4225 = 0.5 | ZMP-sensing riboswitch; 19F shift (ppm): -116.4225 = 0.634 | [4]; 19F shift (ppm): -116.486 = 0.188 | [5]; 19F shift (ppm): -116.486 = 0.395

Reference: the supplement of paper PMC7436455
